To fix the notation:
B1: CPEB3 Ribozyme (parent)
chain: UAACAGGGGGCCACAGCAGAAGCGUUCACGUCGCAGCCCCUGUCAGAUUCUGGUGAAUCUGCGAAUUCUGCUGUAUAUCUC

The source gives no read counts; variants with many changes may rest on few reads.

The variants in the data set derive from B1. As to the kind of experiment: self-cleavage, relative activity (ratio to wild type); higher = more cleavage; in vitro, sequencing. The essentials:
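Relative activity was defined as the cleaved/total read fraction for a variant divided by the same fraction for the unmutated ribozyme. CPEB3 self-cleaving ribozyme libraries were made by rounds of error-prone PCR, barcoded, and transcribed in vitro with T7 RNA polymerase for 5 hours at 37°C, and cleavage ran through transcription plus a 15 min DNase I step before EDTA. Illumina sequencing of template-switched reverse transcripts gave the reads, and DNA sequencing mapped the barcodes. Averages come from three batches, using variants with at least 5 reads.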
With UAACAGGGGGCCACAGCAGAAGCGUUCACGUCGCAGCCCCUGUCUGAUUCAGGUGAAUCUGCGAGUUCUGCUGUCUAUCUC, the self-cleavage was determined as 0.15.

As for UAACAGGGGGCCACAGCAGAAGCGUUCACGUCGCAGCCCCUGUCGGAUUCUGGCGAAUCUGCGAAUUCUGCUGCAUAUCUC, the self-cleavage amounted to 1.17. For UAACAGGGGGCCACAGCAGAAGCGUUCACGUCGCAGCCCCUGUCUGGCUCUGGCGAAUCUGCGAAUUCUGCUGUAUAUCUC, the self-cleavage was 0.13. Take UAACAGGGGGCCACAGCAGAAGCGUUCACGUCGCAGCCCCUGUCUGAUUCUUGUGAAUCUGCGGAUUCUGCUGUAUAUCUC: the self-cleavage is 0.31. For UAACAGGGGGCCACAGCAGAAGCGUUCACGUCGCAGCCCCUGUCUGAUUCUGGUGAAUCUGAGAAUCCUGCUAUAUAUCUC the value was 0.16. On to UAACAGGGGGCCACAGCAGAAGCGUUCACGUCGCAGCCCCUGUCGGAUUCUGGUGAAUCCGCGAAUACAGCUGUAUAUCUC, for which the self-cleavage was found to be 0.2. UAACAGGGGGCCACAGCAGAAGCGUUCACGUCGCAGCCCCUGUCGGAUUCUGGUGAAUCUGCGAAUUCUGCUGUACAUCCC: the self-cleavage amounted to 1.17. For the variant UAACAGGGGGCCACAGCAGAAGCGUUCACGUCGCAGCCCCUGUCUGGUUCUGGUGAAUCUGCGAAUUUAGCUGUAUACCUC, the self-cleavage was 0.11. Turning to UAACAGGGGGCCACAGCAGAAGCGUUCACGUCGCAGCCCCUGUCGGAUUCUGGUGAAUCCGCGAAUACUGCUGUAUAUCUC, the self-cleavage was determined as 0.6. As for UAACAGGGGGCCACAGCAGAAGCGUUCACGUCGCAGCCCCUGUCUGAUUCUGGUAAAUCAGCGAAUUCUGCUGUAUAUCUC, the self-cleavage was 1.04. For UAACAGGGGGCCACAGCAGAAGCGUUCACGUCGCAGCCCCUGUCUGAUUCAGGUGAAUCUGCGAAAUCUGCUGUAUAUCUC, the self-cleavage came out at 0.11. With UAACAGGGGGCCACAGCAGAAGCGUUCACGUCGCAGCCCCUGUCUGAUCCUAGUGAAUCUGCGAAUUCGGCUGUAUAUCUC, the self-cleavage was 0.1. With UAACAGGGGGCCACAGCAGAAGCGUUCACGUCGCAGCCCCUGUCUGAUUCCGGUGAAUCUGCGAAUCCUGCUGUAUAUCUC, the self-cleavage came to 0.24. Consider UAACAGGGGGCCACAGCAGAAGCGUUCACGUCGCAGCCCCUGUCUGAUUCUGGUGGAUCUGCGGAUUCUGCUAUAUAUCUC, for which the self-cleavage came out at 0.67. For UAACAGGGGGCCACAGCAGAAGCGUUCACGUCGCAGCCCCUGUCUGAUACUGGUGGAUCUGCGAAUACUGCUGUAUACCUC the value was 0.1; for UAACAGGGGGCCACAGCAGAAGCGUUCACGUCGCAGCCCCUGUCUGAUUCUGGUGUAUCUGCGAAAUCUGCCGUAUACCUC, 0.14. Regarding UAACAGGGGGCCACAGCAGAAGCGUUCACGUCGCAGCCCCUGUCUGAUCCUGGUGAAUCUGUGAAUUCUGCUGUAUAUCUC, the self-cleavage worked out at 0.17. In the case of UAACAGGGGGCCACAGCAGAAGCGUUCACGUCGCAGCCCCUGUCUGAUUCUGGUGGAUCUGCAAAUUCUGCUGUAUAUCUC, the self-cleavage came to 0.36. UAACAGGGGGCCACAGCAGAAGCGUUCACGUCGCAGCCCCUGUCGGAUUCUGGUGAACCUGCGGGUCCUACUGUAUAUCUC: the self-cleavage came to 0.13.

As to UAACAGGGGGCCACAGCAGAAGCGUUCACGUCGCAGCCCCUGUCUGCCUCUGGUGAGUCUGCGAAUUCUGCUGUAUAUCUC, the self-cleavage worked out at 0.12. Take UAACAGGGGGCCACAGCAGAAGCGUUCACGUCGCAGCCCCUGUCUUAUUCUGGUGAAUCUGCGAAUUCUGCCGUAUAUCUC: the self-cleavage was 0.14. Consider UAACAGGGGGCCACAGCAGAAGCGUUCACGUCGCAGCCCCUGUCUGAUUCUGGUGGAGCUGCGAAUUCUGCUGUAUACCUC, for which the self-cleavage was 0.07. In the case of UAACAGGGGGCCACAGCAGAAGCGUUCACGUCGCAGCCCCUGUCGGAUUCUGGUGAAUCUGCGAAUUCCCCUGUAUACCUC, the self-cleavage was 0.24.

Turning to UAACAGGGGGCCACAGCAGAAGCGUUCACGUCGCAGCCCCUGUCGGAUUCUGGUGAACCUGCGGAUUCUGCUGUAAAUCUC, the self-cleavage is 0.14.

On to UAACAGGGGGCCACAGCAGAAGCGUUCACGUCGCAGCCCCUGUCGGAUUCUGGUGAAUCUGCGAACACUGCUGUAUAUCUC, for which the self-cleavage came out at 0.22.

Consider UAACAGGGGGCCACAGCAGAAGCGUUCACGUCGCAGCCCCUGUCGGAUUCUGGUGAAACUGCGAAUUCUGCCGUAUAUCUC, for which the self-cleavage stood at 0.2. For UAACAGGGGGCCACAGCAGAAGCGUUCACGUCGCAGCCCCUGUCGGAUUCUGGCGAAUCUGCGAAUUCUGCUGUAUACCUC, the self-cleavage amounted to 0.75. For UAACAGGGGGCCACAGCAGAAGCGUUCACGUCGCAGCCCCUGUCUGUCUCUGGUGAAUCUGCGAAUUCUGCUGUAUAUCCC, the self-cleavage was 0.05. UAACAGGGGGCCACAGCAGAAGCGUUCACGUCGCAGCCCCUGUCUGAUACUGGUGAAUCUGCGGAUUCUGCCGUAUAUCUC: the self-cleavage amounted to 0.11. The value for UAACAGGGGGCCACAGCAGAAGCGUUCACGUCGCAGCCCCUGUCUGAUUCUUGUGAUUCUGCGAGUUCUGCUGUAUAUCUC was 0.09. The value for UAACAGGGGGCCACAGCAGAAGCGUUCACGUCGCAGCCCCUGUCUGAUUCUGGUGAAUCUCCGAGUUCUGCUGUAUAUCUC was 0.13. For UAACAGGGGGCCACAGCAGAAGCGUUCACGUCGCAGCCCCUGUCUGAUUCUGGUGAGUCUGUGAAUUCUGCUGGAUAUCUC the value was 0.21. Take UAACAGGGGGCCACAGCAGAAGCGUUCACGUCGCAGCCCCUGUCUGAUCCGGGUGAGUCUGCGAAUUCUGCUGUAUAUCCC: the self-cleavage is 0.16.

On to UAACAGGGGGCCACAGCAGAAGCGUUCACGUCGCAGCCCCUGUCUGGUUCUGGUGAAUCUGCGAAUUCUGAUGUAUAUCUC, for which the self-cleavage is 0.27.

(Values after the RNAGym collection of RNA variant scans (doi:10.1093/nar/gkz1192).)
